Our source for the binding values is paper PMC4933246.

By UniProt entry, the sequences of proteins in these tests, tags left out. Where a name states a change or a piece, a line headed by the entry shows the natural chain unless it says otherwise.
UniProt Q99453: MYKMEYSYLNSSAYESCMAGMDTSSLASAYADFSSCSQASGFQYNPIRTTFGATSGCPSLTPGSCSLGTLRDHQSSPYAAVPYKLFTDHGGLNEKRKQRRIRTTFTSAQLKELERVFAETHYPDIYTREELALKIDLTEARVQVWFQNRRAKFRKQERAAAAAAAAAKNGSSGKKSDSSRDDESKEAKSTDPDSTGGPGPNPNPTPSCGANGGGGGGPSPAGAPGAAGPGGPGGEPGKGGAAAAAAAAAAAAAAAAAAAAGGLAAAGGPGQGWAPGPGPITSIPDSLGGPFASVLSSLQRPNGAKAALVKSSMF
UniProt O14813: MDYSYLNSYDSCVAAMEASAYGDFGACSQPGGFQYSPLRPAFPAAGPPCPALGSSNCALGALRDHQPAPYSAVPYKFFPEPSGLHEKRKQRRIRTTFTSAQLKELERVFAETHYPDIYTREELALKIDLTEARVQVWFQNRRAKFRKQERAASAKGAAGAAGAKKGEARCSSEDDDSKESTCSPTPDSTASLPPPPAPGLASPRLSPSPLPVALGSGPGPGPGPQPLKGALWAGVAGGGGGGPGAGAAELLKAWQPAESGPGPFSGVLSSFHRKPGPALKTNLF

In assay [1] the target is PHOX2B wild type fused to GAL4 BD or VP16 AD (human) (UniProt Q99453). Kind of assay: two-hybrid; mammalian two-hybrid (CheckMate, Promega) in HeLa cells; GAL4 BD fusion (pBIND) and VP16 AD fusion (pACT), 80 fmol each, with 160 fmol pG5LUC; Dual-Luciferase assay.
In assay [2] the target is PHOX2A fused to GAL4 BD or VP16 AD (human) (UniProt O14813). Nature of the assay: two-hybrid; competition in the mammalian two-hybrid system in HeLa cells: GAL4 BD- and VP16 AD-tagged PHOX2A (or PHOX2B WT) co-transfected with equimolar amounts of a plasmid encoding PHOX2B WT or mutants; pG5LUC luciferase.
The target in assay [3] is PHOX2A, MYC- or HA-tagged (human) (UniProt O14813). Nature of the assay: co-IP; HeLa cells co-transfected with MYC- and HA-tagged expression vectors, harvested after 24 h; total extracts in 25 mM Tris-HCl pH 8.0, 150 mM NaCl, 1% Nonidet P-40, 0.5% sodium deoxycholate, 1 mM MgCl2 with universal nuclease; anti-MYC or anti-HA antibody overnight at 4 °C, protein G-agarose; Western blotting with anti-MYC and anti-HA.

Assay [4] deals with PHOX2A fused to GAL4 BD or VP16 AD (human) (UniProt O14813). Nature of the assay: two-hybrid; mammalian two-hybrid (CheckMate, Promega) in HeLa cells; GAL4 BD fusion (pBIND) and VP16 AD fusion (pACT), 80 fmol each, with 160 fmol pG5LUC; Dual-Luciferase assay.
Assay [5] deals with PHOX2B wild type fused to GAL4 BD or VP16 AD (human) (UniProt Q99453). Nature of the assay: two-hybrid; competition in the mammalian two-hybrid system in HeLa cells: GAL4 BD- and VP16 AD-tagged PHOX2A (or PHOX2B WT) co-transfected with equimolar amounts of a plasmid encoding PHOX2B WT or mutants; pG5LUC luciferase.
In assay [6] the target is PHOX2B wild-type protein, MYC- or HA-tagged (human) (UniProt Q99453). Nature of the assay: co-IP; HeLa cells co-transfected with MYC- and HA-tagged expression vectors, harvested after 24 h; total extracts in 25 mM Tris-HCl pH 8.0, 150 mM NaCl, 1% Nonidet P-40, 0.5% sodium deoxycholate, 1 mM MgCl2 with universal nuclease; anti-MYC or anti-HA antibody overnight at 4 °C, protein G-agarose; Western blotting with anti-MYC and anti-HA. For orientation: Immunoblotting shows a protein as a band on a membrane.

Assay [7] deals with in vitro expressed PHOX2B wild-type protein (human) (UniProt Q99453). Nature of the assay: native gel or EMSA; in vitro expressed proteins (rabbit reticulocyte lysate) combined in equimolar amounts with a labelled oligonucleotide of the DBH promoter; supershift with anti-PHOX2A or anti-PHOX2B antibodies. On the technique in general: In EMSA bound probe runs differently from free probe, usually more slowly.

These are yes or no findings as the source states them, for the method shown. For some assays here: Binding seen in cells or lysates may run through a third protein. Some results given as binding are weak or reduced against the parent protein; the word gives no strength.

For the substance “PHOX2A fused to GAL4 BD or VP16 AD (from UniProt O14813 1-284)”, the binding entry in assay [1] and in assay [2] was “binds” each time.
Consider “PHOX2A, MYC- or HA-tagged (from UniProt O14813 1-284)”, for which the binding entry in assay [3] is listed as “binds”.
For the substance “PHOX2B wild type fused to GAL4 BD or VP16 AD (from UniProt Q99453 1-314)”, the binding entry in assay [4] and in assay [5] was “binds” throughout.
Take “PHOX2B wild-type protein, MYC- or HA-tagged (from UniProt Q99453 1-314)”: the binding result in assay [3] and in assay [6] was “binds” each time.
In the case of “VP16-PHOX2B 98–157 (from UniProt Q99453 98-157) (domain or fragment)”, the binding entry in assay [1] is reported as “no binding”.
Still for that read-out and setting: for “VP16-PHOX2B 98–314 (from UniProt Q99453 98-314) (domain or fragment)” the value was “binds”; for “VP16-PHOX2B 155–314 (from UniProt Q99453 155-314) (domain or fragment)”, “no binding”.
For “in vitro expressed PHOX2A (from UniProt O14813 1-284)”, the binding result in assay [7] is listed as “binds”.
